Measured values published in PubChem BioAssay AID652104 (National Center for Advancing Translational Sciences (NCATS), 2013).
Screen size: about 410,000 compounds; about 7,200 (1.8%) were called active. Inconclusive means that the source gave no clear call. Such entries were picked first, then a sample of the others. Calls follow the shape of the dose curve; as a rule, active = well fitted activation curve with a large enough effect; inconclusive = small, poorly fitted or top-dose-only effect, or another doubt; inactive = no such curve, though single readings can be large or run the other way. No potency is given beside an inconclusive call; the fits are too rough.

Test: qHTS of TDP-43 Inhibitors; also: nearly all actives have a fitted effect of over 50% in size; as to growth rescue (activation): % of control where 0% means no effect
Conditions: TDP-43 expressing yeast growth rescue, BacTiter-Glo, 24 h; growth rescue (activation): at 46.1 µM (top of the series) unless noted
Method in brief: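 Luminescence from BacTiter-Glo reports growth of TDP-43-expressing yeast after 24 hr at 30 deg C with compound. Cells were raffinose-pregrown to mid-log, then seeded in galactose medium at OD600=0.02.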
Potency is read from the fitted curve at half-maximal effect; tags tell the direction and shape of the fitted curve.

SMILES | Potency | growth rescue (activation)
COC(=O)c1ccc(NC(=O)C2CCCN2S(=O)(=O)c2ccc(C)cc2)cc1 (stereo not given) | inconclusive [activator, partial curve] | 
CCOC(=O)c1c(CC(C)C)csc1/N=C/C1C(=O)CCCC1=O | inconclusive [activator, full curve] | 
Cc1cc(C)cc(NC(=O)N2CCCN(c3c(Cl)cncc3Cl)CC2)c1 | inactive | 
CCOC(=O)c1nn(C23CC4CC(CC(C4)C2)C3)c2c1C(=O)N(c1ccc(C)cc1)C2=O | inactive | 
CN(CC(=O)Nc1c(Cl)cccc1Cl)C(=O)c1ccccc1-c1nc2ccccc2s1 | inconclusive [activator, single point] | 
N#Cc1ccccc1S(=O)(=O)N1CCN(C(=O)CN(Cc2ccco2)Cc2cccs2)CC1 | inactive | 
Cc1nc2c(C)cccn2c1C(=O)c1ccccc1 | inconclusive [activator, partial curve, poor fit] | 
COc1ccc(/C=C2\CCc3ccccc3C2=O)c(OC)c1OC | inconclusive [activator, single point] | 
Cn1c(=O)[nH]c(=O)c2c1nc(NCCO)n2CC(O)COc1ccccc1 (stereo not given) | inactive | 
CCOc1ccc(/C=C/c2nc(C#N)c(Nc3ccc(OCC)cc3)o2)cc1 | inactive | 
CC1CC(=O)N(CC(=O)Nc2ccc(F)cc2F)c2ccccc2S1 (stereo not given) | inconclusive [activator, partial curve] | 
COc1ccc(Nc2nccc3c2nnn3C)cc1 | inconclusive [activator, single point] | 
O=C(CSc1ccc(-c2cccc([N+](=O)[O-])c2)nn1)N1CCCCC1 | inconclusive [activator, single point] | 
CN(C)c1ccc(NC(=O)CN2CCN(CC(=O)Nc3ccc(Br)cc3)CC2)cc1 | inactive | 
Fc1ccc(/C=N/n2c(COc3ccccc3)n[nH]c2=S)cc1 | inconclusive [activator, partial curve] | 
CCOC(=O)CNC(=O)CSc1nc(-c2ccc(OC)cc2)ns1 | active: 25.1 µM | 
CCOc1ccc2nc(SCC(=O)N(CC(C)C)c3c(N)n(CC(C)C)c(=O)[nH]c3=O)[nH]c2c1 | inconclusive [activator, partial curve] | 
CC(=O)n1c(=O)c2ccccc2c(=O)n1-c1ccccc1 | active: 3.16 µM | 
CC(C)Oc1cccc(C(=O)NC(=S)Nc2cccnc2)c1 | inconclusive [activator, single point] | 
O=C(O)CCc1ccc(-c2cccs2)n1Cc1ccco1 | inconclusive [activator, single point] | 
CCOc1ccc(NC(=O)Cn2c(=O)n(Cc3ccc(C(=O)NCc4ccc(C)cc4)cc3)c(=O)c3ccccc32)cc1 | inconclusive [activator, partial curve] | 
CCc1nnc(NC(=O)CSc2nccn2-c2cccc(C)c2C)s1 | inconclusive [activator, single point] | 
CN(CC(=O)Nc1c(Cl)cccc1Cl)C(=O)c1cccc(-n2cccc2)c1 | inactive | 
CCCCCCN(C(=O)CCl)c1ccccc1 | inconclusive [activator, partial curve] | 

SMILES | Potency | growth rescue (activation)
COc1ccc(C=C(C(C)=O)C(=O)c2ccccc2)cc1 | active: 20 µM | 
CCOc1ccc(C(CC(=O)Nc2cc(C)c(Cl)cc2OC)N2Cc3ccccc3C2=O)cc1OC (stereo not given) | inactive | 
Cc1cc(OCc2cc(C(=O)N3CCN(C)C(=O)[C@@H]3C)no2)cc(C)c1Cl | inconclusive [activator, single point] | 
Cc1nccn1CC(O)COc1ccccc1 (stereo not given) | inactive | 
Cn1c(CNc2nc(-c3ccccc3)cs2)nnc1SCC(=O)OC1CCCCC1 | inconclusive [activator, single point] | 
Cc1ccc(CNC(=O)c2sc3nc(-c4ccc(F)cc4)ccc3c2N)cc1 | inactive | 
COc1ccc(C)cc1NC(=O)NCCCCc1ccccc1 | inconclusive [activator, partial curve] | 
COc1ccc(Cl)cc1NC(=O)CCCC(=O)c1ccccc1 | inconclusive [activator, partial curve] | 
CCc1ccc(-c2nnn(CCC#N)n2)cc1 | inactive | 
Clc1ccc(-n2ncc3c(N4CCCCCC4)ncnc32)cc1 | inactive | 
C[C@@H]1C(c2ccc(F)cc2)=NN(c2ccc(Br)cc2)[C@H]1C(=O)N1CCOC1=O | inconclusive [activator, partial curve, poor fit] | 
O=C(c1cccc(F)c1)N1CCC(c2c[nH]c3ccccc23)(c2c[nH]c3ccccc23)CC1 | inactive | 
Cc1cc(Oc2ccc(C#N)cc2)nc(N2CCOCC2)n1 | inconclusive [activator, single point] | 
COc1ccc(N=Nc2nc(-c3ccccc3)c(-c3ccccc3)[nH]2)cc1 | inconclusive [activator, single point] | 
CCn1c(SCC(=O)Nc2cccc(NC(C)=O)c2)nc2c([nH]c3ccccc32)c1=O | inactive | 
CCCC[C@@H]1CNC(=S)N1CCc1cccc(F)c1 | inconclusive [activator, partial curve] | 
CC(=O)N1c2c(cc(Br)cc2S(=O)(=O)N2CCN(c3ccccc3F)CC2)CC1C (stereo not given) | inconclusive [activator, single point] | 
Cc1cccc(OCC(=O)N(Cc2ccc(C(C)C)cc2)Cc2ccco2)c1C | inactive | 
Cc1nonc1CC(=O)N1CCCC(C(=O)c2ccc(Cl)cc2)C1 (stereo not given) | inconclusive [activator, partial curve] | 
COc1ccc(-c2ccc(CN3C(C(C)C)C(=O)N(Cc4cn(CCC5OCCO5)nn4)CCS3(=O)=O)cc2)cc1 (stereo not given) | active: 35.5 µM | 
c1ccc(CC2CCN(c3nnnn3-c3ccccc3)CC2)cc1 | inconclusive [activator, single point] | 
COc1ccc(-c2cc(C(=O)N3CCN(c4ccc(F)cc4)CC3)no2)cc1OC | inconclusive [activator, single point] | 
CC(NC(=O)c1ccc(Br)o1)C1CC2CCC1C2 (stereo not given) | inconclusive [activator, partial curve] | 
CCCCCCC[C@@H](C/C=C/CCC(=O)O)OC | inconclusive [activator, partial curve, poor fit] | 

SMILES | Potency | growth rescue (activation)
CCOC(=O)C1=CCN(S(=O)(=O)c2ccccc2)C1c1ccc(C)cc1 (stereo not given) | inconclusive [activator, partial curve] | 
CC(=C/C(=O)O)/C=C/c1ccc([N+](=O)[O-])cc1 | inconclusive [activator, single point] | 
O=C(COc1ccc(Cl)cc1)NCc1n[nH]c(=O)c2ccccc12 | inactive | 
CCC1=Nc2cc(C(=O)NCCCOC(C)C)ccc2Sc2ccccc21 | inconclusive [activator, single point] | 
Cc1ccc(CNc2ncnc3c2cnn3-c2ccc(C)cc2C)cc1 | active: 35.5 µM | 
Cc1ccc(NC(=S)N(C)C(c2ccccc2)c2ccccc2)cc1C | inconclusive [activator, partial curve] | 
Cc1nc(Cl)c(C(=O)NC(=O)NCc2ccccc2)c(C)c1Cl | active: 14.1 µM | 
Cc1cc(C(=O)OCC(=O)Nc2c(F)cccc2F)c(C)n1-c1ccccc1 | inconclusive [activator, single point] | 
COC(=O)c1ccc(C)c(NC(=O)C2COc3ccccc3O2)c1 (stereo not given) | inconclusive [activator, partial curve] | 
CCNC1(C#N)CCN(Cc2ccccc2)CC1 | inconclusive [activator, full curve, poor fit] | 
Cc1ccccc1N=Cc1ccc[nH]1 | inconclusive [activator, partial curve] | 
CCOc1ccc(NC(=O)Cn2cnc3c(oc4ccccc43)c2=O)cc1 |  | inactive: 0% [at 9.22 µM]
CN1C(=O)Cc2cc(S(=O)(=O)CCC(=O)N3CCN(c4cccc(Cl)c4)CC3)ccc21 | inactive | 
C=C(C)COc1ccc(-c2nc(N)nc(C(F)(F)F)c2-c2ccc(OC)cc2)c(O)c1 | inconclusive [activator, partial curve, poor fit] | 
C=CCn1c(C)cc(C(=O)CN2C(=O)c3ccccc3S2(=O)=O)c1C | inconclusive [activator, single point] | 
CC(C)=CC(=O)Nc1ccc(Cl)cc1 | inconclusive [activator, single point] | 
c1ccc(Cn2nnc(-c3ccccc3)n2)cc1 | inconclusive [activator, partial curve] | 
CCOC(=O)Cc1csc(NC(=O)CSc2ccc(Br)cc2)n1 | inconclusive [activator, single point] | 
COC(=O)c1ccc2nc(-c3cccc(Br)c3)c(Cc3ccccc3)n2c1 | inconclusive [activator, partial curve] | 
Clc1ccc(-c2nnc3sc(Cc4cccs4)nn23)c(Cl)c1 | inconclusive [activator, single point] | 
Cc1cc(C)nc(NNS(=O)(=O)c2c(F)cc(F)cc2Br)n1 | inconclusive [activator, single point] | 
COC(=O)c1cc(S(=O)(=O)N2CCN(c3cccc(C)c3C)CC2)c[nH]1 | inconclusive [activator, single point] | 
